Binding signal data for 42 sequences are collected here from article PMC7819943, “Rice protein-binding microarrays: a tool to detect cis-acting elements near promoter regions in rice”.

Some of the results follow.

This assay addresses T1, OsWOX13 (Oryza sativa, UniProt Q5QMM3 1-267).
T1 sequence: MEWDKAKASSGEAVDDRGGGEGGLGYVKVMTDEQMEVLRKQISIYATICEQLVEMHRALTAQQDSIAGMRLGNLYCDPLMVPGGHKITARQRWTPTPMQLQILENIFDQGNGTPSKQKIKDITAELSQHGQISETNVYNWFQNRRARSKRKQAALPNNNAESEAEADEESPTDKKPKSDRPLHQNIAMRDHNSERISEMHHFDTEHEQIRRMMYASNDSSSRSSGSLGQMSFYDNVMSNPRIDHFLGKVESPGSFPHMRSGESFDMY
Nature of the assay: protein-binding microarray (RPBM); PBS, 2% BSA, 51.3 ng/ul salmon testes DNA, 50 uM zinc acetate, 200 nM TF, 25 C, 1 h; high values mean tight binding. Conditions: protein: recombinant; tags: N-terminal polyhistidine and DsRed monomer fusion (pET32a); label: CyDye5-dUTP incorporated in the synthesized complementary strand; 3' TTTTT single-stranded linker to array surface; dsDNA, one strand shown. The method, boiled down: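 The binding signal is fluorescence intensity per array feature (arbitrary units). Readings came from an Axon 4000B scanner after a washed, 2% BSA-blocked, double-stranded custom Agilent array had been incubated for 1 h at 25 °C with 200 nM protein and 50 µM zinc acetate. The protein was a Ni–NTA-purified transcription factor fused N-terminally to polyhistidine and DsRed, expressed in E. coli BL21-CodonPlus.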
Regarding “ACCCTTAATTTGTTCCTAATCACAATTGCCGAACGCAGCCCGGAGTCACCTAGTGCAG”, the binding signal was 49400 fluorescence intensity (a.u.).

“TTAATCTTTGATTGTGCGTGTATGGAGTTCTGGATTAGGACGGAGTCACCTAGTGCAG”: the binding signal is 7330 fluorescence intensity (a.u.).

In the case of “CACAATTCAATTACAGTCACAATTAGTGAGCCAAGAAAGACGGAGTCACCTAGTGCAG”, the binding signal was 20400 fluorescence intensity (a.u.). Next, “AGAACCGAATTAATTTGGGGTTAAATAAATGACTAAGCAGCGGAGTCACCTAGTGCAG”: 10900 fluorescence intensity (a.u.); “TTTAAAATAGTTAATACTCAATTAATCACACGCTAAGGGCCGGAGTCACCTAGTGCAG”: 3460 fluorescence intensity (a.u.); “GAATCATCAATAATGATTTGTAATGCTGAATGTTTCGCTTCGGAGTCACCTAGTGCAG”: 15900 fluorescence intensity (a.u.).

On to “CGGAAATAAATTTCAGTTAGTGGTTTTGTAGAGGGCCCACCGGAGTCACCTAGTGCAG”, for which the binding signal is 8680 fluorescence intensity (a.u.). Next, “GTTAATTTTGTGAAATATGTTTGCTGGTTAGTGAATTGTACGGAGTCACCTAGTGCAG”: 12400 fluorescence intensity (a.u.); “ACTAGATTGGATATTTAGTTATGCTGTGTGTTCACCAACACGGAGTCACCTAGTGCAG”: 43000 fluorescence intensity (a.u.). Consider “ACTCTAATGAAGACAAACTTTATATCAAACTTGTAGCCCTCGGAGTCACCTAGTGCAG”, for which the binding signal was 3760 fluorescence intensity (a.u.). In the case of “TCTATATACGGTTTAAATTTAAATTATCATGAACCATGCTCGGAGTCACCTAGTGCAG”, the binding signal is 4770 fluorescence intensity (a.u.).

“TTGTGATCAAAATCAGACAAATTTGCTTTTGGATAAGAATCGGAGTCACCTAGTGCAG”: the binding signal is 6530 fluorescence intensity (a.u.). Next, “AGTTCATGATTAGCTATAAGTGTTACAGTAACCTAGATATCGGAGTCACCTAGTGCAG”: 8250 fluorescence intensity (a.u.); “CGTTGATAGCTACCTGGATCTGGAGGACAAGGCAGTGGTGCGGAGTCACCTAGTGCAG”: 7930 fluorescence intensity (a.u.).

With “GTTTGCTCTATGATTTTATAATTTAAAATTATATTATATACGGAGTCACCTAGTGCAG”, the binding signal is 18000 fluorescence intensity (a.u.). The figure for “ACAAAATAACAATCAAACACGCTTTGGTTTTACACATATACGGAGTCACCTAGTGCAG” is 4520 fluorescence intensity (a.u.); for “GATCCACCAATTTAAATGAAAATTAATGGTGAGATGCTTTCGGAGTCACCTAGTGCAG” it is 8920 fluorescence intensity (a.u.); for “TTTGATTTCTTGGAAGAAACCACTTATTGTACCAATGTTCCGGAGTCACCTAGTGCAG” it is 8080 fluorescence intensity (a.u.).

On to “TGAGGTTGATATATACTCTGATTTATTTATTCGTACACATCGGAGTCACCTAGTGCAG”, for which the binding signal is 3510 fluorescence intensity (a.u.). Next, “TTTATCCAATCAGAATGTCTCGAATACATTAGTTATGGTGCGGAGTCACCTAGTGCAG”: 5350 fluorescence intensity (a.u.); “TTGATGAGGTTAATTTCTTTACAAAACCTAGTAGTCAATTCGGAGTCACCTAGTGCAG”: 8480 fluorescence intensity (a.u.); “CTTTCTGATCATAATTAAATATATCATTCTCCTGCACGTGCGGAGTCACCTAGTGCAG”: 15900 fluorescence intensity (a.u.). Next, “CTTAATTGAGAGAGAGAGAGAGAGAGAGAGAGAGAGAGATCGGAGTCACCTAGTGCAG”: 4210 fluorescence intensity (a.u.); “CGCTAATATAATGTTCTAAGTGGCTCCTTTGACAAGCAATCGGAGTCACCTAGTGCAG”: 3800 fluorescence intensity (a.u.). “CTCTTCAAAGATTGTCCTTTGACAGATTTGGGAGAGGGTCCGGAGTCACCTAGTGCAG”: the binding signal is 3640 fluorescence intensity (a.u.). Next, “ACTAATTAAGAGTCTCGATCAATCCTTTTCAGTAAATTATCGGAGTCACCTAGTGCAG”: 8920 fluorescence intensity (a.u.); “TTTCCTAATTGTATTTCTATATGGACTCGTTTATTCCAAACGGAGTCACCTAGTGCAG”: 13800 fluorescence intensity (a.u.); “CGACCTGAGCCAGAAATTTAATTGATATTTCTTCCTTCGTCGGAGTCACCTAGTGCAG”: 7400 fluorescence intensity (a.u.). Next, “TTGTAATTGATTGTGGCCCATCAACTATTGCCATCACTGGCGGAGTCACCTAGTGCAG”: 64900 fluorescence intensity (a.u.); “ACTATAATGTAATTTGTACTATAGTGTAATTAAACTGTATCGGAGTCACCTAGTGCAG”: 14700 fluorescence intensity (a.u.). The figure for “AACGATGATTGAGCAAGGATCGAAAAGTATATCTTTCTATCGGAGTCACCTAGTGCAG” is 17700 fluorescence intensity (a.u.); for “TTATAGTACTATTAATCAATTATTACTAAATGACGCCGATCGGAGTCACCTAGTGCAG” it is 10200 fluorescence intensity (a.u.); for “CTTTTAAATGTAGTATAATTATATTATAACTAATAACTAGCGGAGTCACCTAGTGCAG” it is 18300 fluorescence intensity (a.u.). Regarding “TATCATTTGATTTATTGTTAAATATTTGATTCATTGTTAACGGAGTCACCTAGTGCAG”, the binding signal was 7440 fluorescence intensity (a.u.). For the sequence “CCATTGATTGCTGCAGTTCAGCGTAGCCCCGTCGTTCAAGCGGAGTCACCTAGTGCAG”, the binding signal is 39600 fluorescence intensity (a.u.). As to “GATAATTTTGATATGGTAATTGCTTAGGTTGTGCATAGCTCGGAGTCACCTAGTGCAG”, the binding signal was 47600 fluorescence intensity (a.u.). With “TGGAATTCATCTAATTATATCATTTTCCTCCATACTAGCTCGGAGTCACCTAGTGCAG”, the binding signal is 3430 fluorescence intensity (a.u.).

For “GTCATTCTAATTATATCGTTATATTCATTATAATTATTTTCGGAGTCACCTAGTGCAG”, the binding signal is 8450 fluorescence intensity (a.u.). The figure for “CATACTACCAACCAATTAGTGCTAATAGGTAGCATTTTCTCGGAGTCACCTAGTGCAG” is 5850 fluorescence intensity (a.u.); for “TGGTATTTAATTATTTGTTAGAGTCATCATTGGTCTATAACGGAGTCACCTAGTGCAG” it is 8940 fluorescence intensity (a.u.). As for “TCTAGCTATTAATTTGCTCTCATTTATAACTTAGCCGCTACGGAGTCACCTAGTGCAG”, the binding signal was 6390 fluorescence intensity (a.u.). As to “TGTTAATCAACAAATCAATTTTAATTAGGGCTTTGTTCGACGGAGTCACCTAGTGCAG”, the binding signal was 46800 fluorescence intensity (a.u.).
